The other results are listed elsewhere or left out. A value given as a limit tells only on which side of the number the result lay.

First the molecules themselves.
B1: PhoQ; a variant is named by its letters at X, in order, P23837 (parent)
chain: MKKLLRLFFPLSLRVRFLLATAAVVLVLSLAYGMVALIGYSVSFDKTTFRLLRGESNLFYTLAKWENNKLHVELPENIDKQSPTMTLIYDENGQLLWAQRDVPWLMKMIQPDWLKSNGFHEIEADVNDTSLLLSGDHSIQQQLQEVREDDDDAEMTHSVAVNVYPATSRMPKLTIVVVDTIPVELKSSYMVWSWFIYVLSANLLLVIPLLWVAAWWSLRPIEALAKEVRELEEHNRELLNPATTRELTSLVRNLNRLLKSERERYDKYRTTLTDLTHSLKTPLXXLQXXLRSLRSEKMSVSDAEPVMLEQISRISQQIGYYLHRASMRGGTLLSRELHPVAPLLDNLTSALNKVYQRKGVNISLDISPEISFVGEQNDFVEVMGNVLDNACKYCLEFVEISARQTDEHLYIVVEDDGPGIPLSKREVIFDRGQRVDTLRPGQGVGLAVAREITEQYEGKIVAGESMLGGARMEVIFGRQHSAPKDE

The variants in the assay derive from B1. Put plainly: enrichment ratio after two sorts for PhoP signalling (ratio (wild type AVST 3.29)); higher = more functional. The settings on record: with PhoP (E. coli).
On to FTGS, for which the enrichment ratio is ≤ 0.25. With TSKY the figure was ≤ 0.25; with MEDM, ≤ 0.25. As for TSCI, the enrichment ratio was found to be 14.8. With VFSE, the enrichment ratio was ≤ 0.25.

Turning to GLRS, the enrichment ratio is ≤ 0.25.

Turning to EPYI, the enrichment ratio was ≤ 0.25.

Consider WHAC, for which the enrichment ratio was ≤ 0.25. For NMLQ the value was ≤ 0.25.

Turning to YNGF, the enrichment ratio was ≤ 0.25.

Turning to TINA, the enrichment ratio is 7.11. For DIPT the value was ≤ 0.25; for FRIY, ≤ 0.25.

In the case of LCFC, the enrichment ratio was ≤ 0.25. For TFCM the value was 0.908; for LPKF, ≤ 0.25; for MFQG, ≤ 0.25.

As for FEFA, the enrichment ratio was ≤ 0.25.

Consider HSDW, for which the enrichment ratio is ≤ 0.25. For SWEF the value was ≤ 0.25. With DSHI the figure was ≤ 0.25; with LQFD, ≤ 0.25.

With VMES, the enrichment ratio was ≤ 0.25.

CYLF: the enrichment ratio was ≤ 0.25. For VFHV the value was ≤ 0.25.

As for KTPL, the enrichment ratio was ≤ 0.25. For NQTY the value was ≤ 0.25; for LPTS, ≤ 0.25; for MHWC, ≤ 0.25. With EYLA, the enrichment ratio is ≤ 0.25. Turning to DTMW, the enrichment ratio was ≤ 0.25.

Regarding MFEL, the enrichment ratio was ≤ 0.25.

Consider FWQS, for which the enrichment ratio was ≤ 0.25. With SCRG the figure was ≤ 0.25; with VRFC, ≤ 0.25. For IDQR the value was ≤ 0.25. With LESL the figure was ≤ 0.25; with FPDE, ≤ 0.25; with EAHL, ≤ 0.25. As to QSHQ, the enrichment ratio was determined as 22.4.

Regarding TKGM, the enrichment ratio is 3.37. With HVRK the figure was ≤ 0.25. With QVAG the figure was ≤ 0.25. For YDIY the value was ≤ 0.25; for AWQH, ≤ 0.25. For the variant ITVW, the enrichment ratio was ≤ 0.25. For NLHP the value was ≤ 0.25; for PDND, ≤ 0.25. For HYNR the value was ≤ 0.25; for FATY, ≤ 0.25; for GKDV, ≤ 0.25. For EYTS the value was ≤ 0.25; for GVCV, 3.13. For VEYF, the enrichment ratio is ≤ 0.25. As for AHIH, the enrichment ratio was ≤ 0.25. As to AMGP, the enrichment ratio is ≤ 0.25. With SGHP the figure was ≤ 0.25; with YESR, ≤ 0.25. For HFGM the value was ≤ 0.25. For QGGW the value was ≤ 0.25; for SRRM, ≤ 0.25; for YSID, ≤ 0.25.

With PCPW, the enrichment ratio is ≤ 0.25. For DMRM the value was ≤ 0.25; for YNNS, ≤ 0.25. With HPPY the figure was ≤ 0.25; with LYPM, ≤ 0.25; with PIEC, ≤ 0.25. With SQCD the figure was 11.4. Consider PRSC, for which the enrichment ratio was ≤ 0.25. As for FPTE, the enrichment ratio was ≤ 0.25. With YMNR the figure was ≤ 0.25; with DFDQ, ≤ 0.25. For NRPR the value was ≤ 0.25; for DTLR, ≤ 0.25; for TPVS, ≤ 0.25. With FIAH the figure was ≤ 0.25. As to PQWM, the enrichment ratio was ≤ 0.25.

With AIHF, the enrichment ratio is ≤ 0.25. On to WCMT, for which the enrichment ratio was ≤ 0.25. IRAY: the enrichment ratio is ≤ 0.25. For LQAR the value was ≤ 0.25. For the variant YFNA, the enrichment ratio was ≤ 0.25. With KVRD the figure was ≤ 0.25; with DVKD, ≤ 0.25; with QMKY, ≤ 0.25. Take SNGN: the enrichment ratio worked out at 4.56.

As for SFFD, the enrichment ratio is ≤ 0.25. With YIKF the figure was ≤ 0.25; with HHRE, ≤ 0.25; with KQDC, ≤ 0.25. For VANA the value was ≤ 0.25; for PTVF, ≤ 0.25; for NTCY, ≤ 0.25. With IYYP the figure was ≤ 0.25; with HYFH, ≤ 0.25; with KTCQ, ≤ 0.25. As for AFQE, the enrichment ratio is ≤ 0.25. As for YMVG, the enrichment ratio turned out to be 0.44. With SRPR the figure was ≤ 0.25; with YFDW, ≤ 0.25; with QRHV, ≤ 0.25. Turning to DYIV, the enrichment ratio was ≤ 0.25. Turning to FWRF, the enrichment ratio is ≤ 0.25. With HQSQ, the enrichment ratio is ≤ 0.25.

For the variant HQNV, the enrichment ratio is ≤ 0.25. For NRQA the value was ≤ 0.25.

As to RFAS, the enrichment ratio is ≤ 0.25. For VKAQ the value was ≤ 0.25; for RHWI, ≤ 0.25. For QYYL the value was ≤ 0.25. With EIVY the figure was ≤ 0.25. Consider QGCE, for which the enrichment ratio was ≤ 0.25.

With LQQI, the enrichment ratio is ≤ 0.25. With TKNV the figure was ≤ 0.25.

With YDKI, the enrichment ratio was ≤ 0.25. For LVPT the value was ≤ 0.25; for HVAL, ≤ 0.25. For RCHK the value was ≤ 0.25; for DQRI, ≤ 0.25. With TCLW, the enrichment ratio was ≤ 0.25. For HWSN the value was ≤ 0.25; for TGNW, ≤ 0.25; for KYPS, ≤ 0.25. Regarding HWYY, the enrichment ratio is ≤ 0.25. With PHSM the figure was ≤ 0.25; with IFWG, ≤ 0.25. As to QPKV, the enrichment ratio was ≤ 0.25. With MRWP the figure was ≤ 0.25; with ENPW, ≤ 0.25; with PQNT, ≤ 0.25. As to NLDE, the enrichment ratio was ≤ 0.25. With IKKL the figure was ≤ 0.25.

Regarding PGCM, the enrichment ratio was ≤ 0.25.

As for DLQH, the enrichment ratio is ≤ 0.25. With MLDP the figure was ≤ 0.25.

Turning to KRVY, the enrichment ratio is ≤ 0.25. With RIRY the figure was ≤ 0.25; with NRLC, ≤ 0.25.

Regarding PNRR, the enrichment ratio is ≤ 0.25.

For PVKQ, the enrichment ratio was ≤ 0.25. For NLCR the value was ≤ 0.25; for GHRR, ≤ 0.25; for SIDG, ≤ 0.25. For SMID the value was ≤ 0.25; for ANWF, ≤ 0.25.

Regarding WDVP, the enrichment ratio was ≤ 0.25. For AIII the value was 1.5. With HNQP the figure was ≤ 0.25; with IGHY, ≤ 0.25. In the case of KPPP, the enrichment ratio was ≤ 0.25.

As to NKWA, the enrichment ratio is ≤ 0.25.

As to SGHQ, the enrichment ratio is ≤ 0.25. Consider NRMH, for which the enrichment ratio is ≤ 0.25. For WTVC the value was ≤ 0.25. Consider IDTS, for which the enrichment ratio is ≤ 0.25. In the case of PGDW, the enrichment ratio is ≤ 0.25. For the variant SSVY, the enrichment ratio stood at 8.85. With GELL the figure was 12.9; with QYVQ, ≤ 0.25; with AHDC, ≤ 0.25. With KEPW the figure was ≤ 0.25; with IGMR, ≤ 0.25; with GGFW, ≤ 0.25. With SQYE the figure was ≤ 0.25; with DEQG, ≤ 0.25. As for MNEQ, the enrichment ratio is ≤ 0.25. With NNNV the figure was ≤ 0.25. As for VIQM, the enrichment ratio was ≤ 0.25.

For the variant FNYD, the enrichment ratio is ≤ 0.25.

As for MFIW, the enrichment ratio is ≤ 0.25. For IGGV the value was ≤ 0.25. For QRLM the value was ≤ 0.25; for FQII, ≤ 0.25; for WSFH, ≤ 0.25. For HMWI, the enrichment ratio is ≤ 0.25.

As to MERK, the enrichment ratio was ≤ 0.25.

As for YPCM, the enrichment ratio was ≤ 0.25. For FMRM the value was ≤ 0.25; for NLFV, ≤ 0.25; for WYTY, ≤ 0.25. Consider MCCV, for which the enrichment ratio was ≤ 0.25. For IHRV the value was ≤ 0.25; for DPIQ, ≤ 0.25; for FYFS, ≤ 0.25. For MQFG the value was 3.71. With GFRA the figure was ≤ 0.25. Regarding LRMK, the enrichment ratio is ≤ 0.25. Turning to SCNI, the enrichment ratio is ≤ 0.25. With QLKK the figure was ≤ 0.25; with GCGE, ≤ 0.25. For FGEA the value was ≤ 0.25; for HDPF, ≤ 0.25. With IRAS the figure was ≤ 0.25; with SLWL, ≤ 0.25.

The record behind these values is a collection of fitness landscapes (doi:10.1126/science.1257360).
